# Source: publication PMC4336329 (PLoS ONE, 2015)
# In all, about 310,000 compounds went through this assay and about 2,200 (0.71%) showed an effect of 50% or more. Effects have a minus sign here. The list shows a part of the results.
# Target: human ether-à-go-go-related gene (hERG) potassium channel (human, UniProt Q12809)
# Assay: primary screen, population patch clamp on CHO cells stably expressing hERG
# human ether-à-go-go-related gene (hERG) potassium channel, sequence (Q12809 whole entry, looked up): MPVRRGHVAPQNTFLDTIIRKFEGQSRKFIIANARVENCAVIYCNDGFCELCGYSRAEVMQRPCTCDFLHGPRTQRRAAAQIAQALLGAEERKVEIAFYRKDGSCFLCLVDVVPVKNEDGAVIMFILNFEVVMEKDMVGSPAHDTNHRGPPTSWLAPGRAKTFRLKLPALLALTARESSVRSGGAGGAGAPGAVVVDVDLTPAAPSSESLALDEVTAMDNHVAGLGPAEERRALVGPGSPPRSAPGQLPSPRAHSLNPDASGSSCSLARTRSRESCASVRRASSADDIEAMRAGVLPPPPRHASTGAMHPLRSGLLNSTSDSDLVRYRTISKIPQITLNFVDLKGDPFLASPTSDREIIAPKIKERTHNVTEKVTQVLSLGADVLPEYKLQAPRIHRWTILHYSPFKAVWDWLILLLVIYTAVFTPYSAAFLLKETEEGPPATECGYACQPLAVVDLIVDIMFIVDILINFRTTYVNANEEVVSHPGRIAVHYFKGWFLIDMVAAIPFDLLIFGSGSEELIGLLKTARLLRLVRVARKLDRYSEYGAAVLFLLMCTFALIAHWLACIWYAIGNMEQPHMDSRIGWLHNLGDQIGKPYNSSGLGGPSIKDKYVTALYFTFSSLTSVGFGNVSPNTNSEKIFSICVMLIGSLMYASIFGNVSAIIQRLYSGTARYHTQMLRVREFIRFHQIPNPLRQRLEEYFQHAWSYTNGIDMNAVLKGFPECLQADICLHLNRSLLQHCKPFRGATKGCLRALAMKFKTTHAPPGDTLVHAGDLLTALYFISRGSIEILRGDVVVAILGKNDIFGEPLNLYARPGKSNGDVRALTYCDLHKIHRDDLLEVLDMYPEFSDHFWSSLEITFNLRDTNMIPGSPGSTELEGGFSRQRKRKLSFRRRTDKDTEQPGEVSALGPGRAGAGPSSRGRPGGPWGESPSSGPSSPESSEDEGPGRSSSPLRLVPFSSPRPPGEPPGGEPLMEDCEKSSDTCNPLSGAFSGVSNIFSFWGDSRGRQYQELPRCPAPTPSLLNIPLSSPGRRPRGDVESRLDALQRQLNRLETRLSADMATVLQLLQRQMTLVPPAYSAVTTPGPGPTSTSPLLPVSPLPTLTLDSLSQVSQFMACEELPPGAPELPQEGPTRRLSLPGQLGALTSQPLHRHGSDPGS
row,Compound,"hERG current change (%, negative = inhibition) at 1uM [%]"
1,CCOC(=O)Cc1csc(NC(=O)c2ccc3c(c2)OCO3)n1,9.9
2,CN1c2ccccc2N(C)C1c1c(O)ccc2ccccc12,-3.93
3,Cc1ccc2cc(C#N)c(SCC(=O)NCc3ccco3)nc2c1,5.21
4,CCOC(=O)CC(=O)CSc1nc2ccccc2c(=O)n1-c1ccc(C(=O)N2CCOCC2)cc1,10.7
5,COc1cc(C(=S)N2CCCC2)cc(OC)c1O,12.3
6,c1ccc(CNCC2COc3ccccc3O2)cc1 (stereo not shown),16.4
7,O=C(CNC(=O)c1ccco1)NCC(=O)OCc1ccc(F)cc1,15.3
8,C=CCCCCCCCCC(=O)NNC1=CC(=O)CC(C)(C)C1,1.29
9,CCn1c(=O)cc(SCC(=O)NCCCN2CCC(C)CC2)c2ccccc21,6.91
10,O=C(CN1C(=O)/C(=C\c2ccccc2Br)Oc2ccccc21)NCCCN1CCOCC1,8.38
11,CCOC(=O)c1cc(S(=O)(=O)N2CCOCC2)cn1C,18.8
12,Cl.c1ccc2c(c1)oc1c(NCC3CCCO3)ncnc12 (stereo not shown),8.38
13,N/C(=N\OC(=O)c1ccc([N+](=O)[O-])cc1)c1cccnc1,17.5
14,Cc1ccc(Oc2ccccc2/C=C/C(=O)O)cc1,15
15,CCN1CCN(C(=O)C2CCN(c3nnc(-n4c(C)ccc4C)s3)CC2)CC1,1.5
16,CCC(C)NC(=O)CSC1=Nc2ccccc2C2=NC(CC(=O)NCc3ccccc3)C(=O)N12 (stereo not shown),6.89
17,COc1cc(/C=C(\C#N)c2nc3ccccc3[nH]2)ccc1OC(=O)c1ccco1,-0.888
18,COc1cccc(CNC(=O)CN2C(=O)COc3ccc(S(=O)(=O)N4CCOCC4)cc32)c1,7.36
19,C/C(=C\c1ccccc1)C1NC(=O)c2c(sc3c2CCCC3)N1 (stereo not shown),-13.5
20,CC1=NN(c2nc(-c3ccc(Cl)cc3)cs2)C(=O)C1,11.7
21,O=C(Nc1nnc(SCc2ccccc2)s1)c1ccco1,5.19
22,Cc1ccc(S(=O)(=O)/N=C(/Nc2ccc3[nH]c(=O)[nH]c3c2)c2ccccc2)cc1,9.61

row,Compound,"hERG current change (%, negative = inhibition) at 1uM [%]"
1,O=C(CSc1nnc(-c2ccncc2)n1CC1CCCO1)Nc1cccc(O)c1 (stereo not shown),6.15
2,c1ccc(N(c2ccccc2)c2nc(N3CCCC3)nc(-n3ccnc3)n2)cc1,2.46
3,O=C(NC1CCCC1)C1=COCCO1,6.01
4,CCC(COC)NC(=O)CCc1nnc(Cc2c[nH]c3ccccc23)o1 (stereo not shown),19.2
5,Cc1cc([N+](=O)[O-])cc(C)c1OCC(=O)N/N=C/c1ccc(OC(=O)c2ccccc2)cc1,7.73
6,COc1ccc(-c2cn3ccccc3n2)cc1,13.8
7,O=C(O)CCCc1nc(-c2ccccc2)no1,0.874
8,CC(=O)N1CCCc2cc(S(=O)(=O)N3CCCC(C(=O)Nc4cccc(C)c4)C3)ccc21 (stereo not shown),11
9,CN(C)c1ccc(NC(=O)CSc2nc3ccccc3c(=O)n2C2CCCCC2)cc1,-14.6
10,COc1ccccc1N(CC(=O)NCc1ccccc1)C(=O)CCC(=O)Nc1nccs1,15.6
11,CC(/C=N/NC(=O)c1nnn(-c2nonc2N)c1CN(C)C)=C\c1ccco1,2.8
12,c1ccc(CN2CCN(c3ncnc4c3[nH]c3ccccc34)CC2)cc1,-4.31
13,NC(=O)CSc1nc(-c2ccccc2Cl)ns1,9.72
14,COc1cc2c(cc1OC)C(C)N(C(=O)Cc1ccc(C(F)(F)F)cc1)CC2 (stereo not shown),1.85
15,COc1ccc(C2NN=C(c3ccc(C)cc3)S2)cc1OC (stereo not shown),16.1
16,c1cc(-c2noc(CC3CCCCC3)n2)ccn1,13.9
17,COc1ccc(C(=O)CN(C(=O)c2ccc(Cl)cc2)N2C(=O)C3CCCCC3C2=O)cc1 (stereo not shown),10.8
18,CSc1sc(C(=O)NC(=O)NCc2cccnc2)c(C)c1-c1ccon1,-0.601
19,Cc1ccccc1C(=O)NC(=S)Nc1cccc(NC(=O)C(C)C)c1,-3.79
20,O=C(O)c1cc(N=Nc2ccc(S(=O)(=O)Nc3ccccn3)cc2)ccc1O,7.96
21,Cc1ccsc1/C=N/NC(=O)c1ccco1,12.5
22,CCCNS(=O)(=O)c1ccc(CCC(=O)NCCc2ccc(OC)c(OC)c2)cc1,17.7

row,Compound,"hERG current change (%, negative = inhibition) at 1uM [%]"
1,O=C(c1cc(-c2ccc(Cl)c(Cl)c2)on1)N1CCOCC1,6.02
2,COc1ccc(C(=O)c2ccc([N+](=O)[O-])cc2Cl)cc1,20.8
3,CN(CC(=O)Nc1ccc(N2CCOCC2)cc1)C(=O)c1cc(S(=O)(=O)N(C)C)ccc1Cl,9.46
4,O=C(C1CC(=O)N(c2ccc3c(c2)OCCO3)C1)N1CCN(Cc2ccccc2F)CC1 (stereo not shown),9.26
5,S=c1[nH]ncn1/N=C/c1ccccc1,14.4
6,O=C(N/N=C/c1c(-c2ccccc2)[nH]c2ccccc12)c1cccnc1,-1.55
7,Cc1c(-c2cccs2)[n+](=O)c2c(n1[O-])CCCC2,9.21
8,O=C(CNc1ccc2c(c1)OCO2)N/N=C\c1cn(Cc2ccccc2)c2ccccc12,7.16
9,O=C(NCc1cccnc1)c1ccc(S(=O)(=O)N2CCOCC2)cc1,1.04
10,Cc1ccc(N2C(=O)/C(=C/N3CCN(C(=O)c4ccco4)CC3)C(=O)NC2=S)cc1C,1.67
11,O=C(OCn1nnc2ccccc2c1=O)c1ccc(O)cc1,-2.41
12,Cc1cccc(OCCn2c(=O)sc3ccccc32)c1,7.72
13,CCC(C)(CC(=O)N(C)CCC#N)c1ccccc1 (stereo not shown),4.19
14,N=C1/C(=C/c2coc3ccccc3c2=O)C(=O)N=C2SC(c3ccco3)=NN12,16
15,COC(=O)c1cc2c(ccn2-c2ccc(F)cc2)n1Cc1cccc(OC)c1,1.82
16,CN(C)CCCN(C(=O)c1ccc2c(c1)CCCC2)c1nc2cc3c(cc2s1)OCO3.Cl,-17.4
17,CN(Cc1cccs1)C(=O)/C=C/c1ccccc1[N+](=O)[O-],7.21
18,CN1CCc2c(sc3c2C(=O)NC(c2cccc(OC(=O)c4cccs4)c2)N3)C1 (stereo not shown),9.1
19,COc1ccccc1C(CNC(=O)c1cccc(S(=O)(=O)NCc2ccccc2)c1)N(C)C (stereo not shown),-8.9
20,COc1cccc(-n2c(=S)sc3c(=O)n(-c4ccccc4C)c(SCC(=O)O)nc32)c1,17.3
21,Cc1cc(C)c(S(=O)(=O)N2CCOCC2)c(C)c1N(C)S(=O)(=O)c1ccccc1,5.19
22,O=C(Cc1ccccc1)NN1C(=O)/C(=C/c2ccc(C(=O)O)cc2)SC1=S,16.7

row,Compound,"hERG current change (%, negative = inhibition) at 1uM [%]"
1,CNc1nnc(SCC(=O)c2cc(C)n(C3CC3)c2C)s1,13.8
2,CCOC(=O)c1c(C)[nH]c(C)c1C(=O)CSc1nnc(N)s1,11.6
3,COC(=O)c1c(-c2ccc(C(C)(C)C)cc2)csc1NC(=O)C1C2CCC(O2)C1C(=O)O (stereo not shown),3.72
4,Cc1sc2ncnc(SCC(=O)NC3CC3)c2c1C,-0.41
5,c1ccc(-c2cncnc2)cc1,7.98
6,CCC(C)c1nc2ccsc2c(N2CCOC2=O)c1-c1ccccc1 (stereo not shown),-5.54
7,CCCCC(=O)N1CC(=O)Nc2ccc(F)cc2C1c1ccccc1 (stereo not shown),8.61
8,Cc1cccc(-n2c(C)cc(/C=N/NC(=O)c3cccc([N+](=O)[O-])c3C)c2C)c1,18.7
9,CC(=O)c1ccc(N2Cc3ccccc3/C2=N\C(=O)Nc2ccc(Cl)cc2)cc1,-0.961
10,NC(=S)N/N=C/c1ccc(-c2cc(Cl)cc(Cl)c2)o1,8.65
11,COc1ccc(-c2nn(-c3ccccc3)cc2/C=C(\C#N)C(N)=O)cc1[N+](=O)[O-],28
12,S=C(N/N=C/c1ccc2ncccc2c1)Nc1cccnc1,8.67
13,COC(=O)CN1C(=O)C2(C(C#N)=C(N)Oc3ccccc32)C2=C1CC(C)(C)CC2=O (stereo not shown),9.96
14,O=C(Nc1cc(Cl)ccc1F)c1ccc(-n2cncn2)c([N+](=O)[O-])c1,-9.27
15,O=S(=O)(NC1CC1)c1ccc2c3c(cccc13)CC2,6.76
16,CCOC(=O)c1ccc(NC(=O)C2CCCN(S(=O)(=O)c3ccc(F)cc3)C2)cc1 (stereo not shown),-1.38
17,CC1(C)C(C=C(Cl)Cl)C1C(=O)N1CCN(c2ccccc2)CC1 (stereo not shown),0.423
18,Cc1ccc(NC(=O)C2CC(=O)N(c3ccc4c(c3)OCCO4)C2)nc1 (stereo not shown),9.18
19,CN(C)C(=O)c1ccc(-n2nc(C(F)(F)F)c3c2CCCC3)cc1,-1.45
20,CCCn1c(C(C)Nc2nc(-c3ccc(C)cc3)cs2)nc2ccccc21 (stereo not shown),16.8
21,Fc1cccc(/C=N/Nc2ccccn2)c1,18.1
22,O=C(c1ccc(Br)c([N+](=O)[O-])c1)N1CCN(Cc2ccccc2)CC1,-8.05
